Measurements taken from the supplement of paper PMC5499739.
Over roughly 16,000 sequences, “Z-score” has its median near -0.37; the highest 2% begin near 3.2. Some of the results follow.

Each sequence was assayed on RBM10 RRM1-ZnF (GST-tagged construct) (assay: RNAcompete 7-mer binding Z-score; higher = stronger binding preference).
Method in brief: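 Bound RNA was identified by microarray hybridisation after GST-tagged RBM10 constructs (20 pmol) had been mixed with 1.5 nmol of a designed pool of 241 399 RNAs up to 41 nt, transcribed from microarray-derived DNA templates. Binding ran for 30 min at 4°C in 1 ml Hepes pH 7.8 buffer with KCl, NaCl, glycerol, DTT, BSA and glutathione Sepharose beads, with four 2-min washes at 4°C afterwards. For every heptamer motif, a one-sided Z-score for enrichment was computed across the probes that contained it.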

Point of comparison: AAUCCUG, “RNAcompete 7-mer binding Z-score” value -0.769. Against it:
- AUGACUC — higher, -0.548
- GGCUUCU — higher, -0.581
- UCGAAGU — higher, -0.103
- AAAGAAG — higher, 0.813
- AGUGACG — higher, 1
- AACCCUU — lower, -0.958
- GCAAAGG — higher, 1.81
- ACGCGGC — higher, -0.171
- GCGCCGU — higher, -0.249
- CGCAUAG — higher, -0.262
- UAAUAGC — higher, -0.655
- UUAUAAA — higher, -0.467
- GUAAUUC — higher, -0.373
- ACGUAAG — higher, 0.03
- CAGCAAA — higher, -0.279
- CUACAGU — lower, -0.798
- GAUCUAG — higher, -0.48
- UGACCGA — higher, -0.441
- CAGAUAU — higher, -0.584
- CAUGUCG — higher, -0.487
- ACUUUAC — lower, -0.902
- GCUUGGG — higher, 1.89
- CAACACU — higher, -0.526
- CAUGGAA — higher, 1.1
- UUCGGGC — higher, 0.0918
- GAGCCAU — higher, -0.477
- UCGAAUG — higher, -0.431
- UAUUGAA — higher, -0.392
- GACCUUA — lower, -0.993
- CUGGUGA — higher, 0.787
- AGAAUUU — higher, -0.506
- GAUUUAG — higher, 0.43
- GUGCUUC — higher, -0.454
- GUCAGCU — higher, -0.425
- CGGUGCU — higher, 0.485
- AUCUUGC — lower, -0.935
- GGUGGCA — higher, 2.02
- UGAAGCG — higher, 0.608
- AGGGACG — higher, 2.13
- CCGAGUU — lower, -0.841
- AUAUCUU — higher, -0.629
- UAGGAGU — higher, 2.44
- GGGCAUA — higher, 1.66
- AGCGAUU — higher, -0.269
- GUCCCCA — higher, -0.269
- UAUCUCA — higher, -0.61
- UAGAUGU — higher, 0.241
- GCUGCUC — higher, -0.415
- GUACUCA — higher, -0.542
- GAUUGAG — higher, 1.33
- ACUGGUG — higher, 1.29
- CCGACGA — higher, -0.464
- UCGUUCG — higher, -0.581
- CCACAAC — higher, -0.535
- UGAGCGC — higher, -0.132
- AUAAAUC — higher, -0.659
- CAUUUUC — lower, -0.938
- AACCGCU — lower, -0.824
- UAGCGGA — higher, 1.13
- UGGUAAU — higher, 0.914
- AGUUGAC — higher, 0.115
- UGGGUUU — higher, 2.64
- UUGGUUC — higher, -0.344
- ACCCCGA — higher, -0.158
- CUCAGUC — lower, -0.824
- GGGAUUC — higher, 1.12
- UCGAGGC — higher, 0.0755
- GGCUACA — higher, -0.103
- AUCAUGU — higher, -0.366
- UAAACGG — higher, 0.677
- UUCUUAA — higher, -0.724
- CGUCCGA — higher, -0.707
- GAGUUAG — higher, 1.02
- CACCAUU — lower, -0.86
- GGGGUGG — higher, 4.71
- UUUACUC — higher, -0.743
- UCGCUGA — higher, -0.448
- ACGUGCA — higher, -0.035
- AUGGUCG — higher, 0.92
- UAUUGCC — lower, -0.795
- UAGACCG — higher, -0.188
- AGGAUGA — higher, 1.63
- CAUAGGU — higher, 0.761
- CCGCGUG — higher, -0.0512
- CCCGAGC — higher, -0.493
- CAACGGG — higher, 2.16
- UAGCGUU — higher, -0.405
- AUGGGUC — higher, 2.19
- GAUAAUC — higher, -0.376
- AGACCGA — lower, -0.857
- GAGUAUG — higher, 1.15
- AGGAAUA — higher, 0.881
- AAAGUUA — higher, 0.082
- GAUAACU — higher, -0.415
- AAUGCGA — higher, 0.069
- CUUACUA — higher, -0.74
- CUCCCCU — higher, -0.314
- GUGGUUC — higher, 0.716
- GUAUGGC — higher, 0.917
- GAGGGCA — higher, 2.12
- CGCAGUC — higher, -0.561
- CUAAACA — higher, -0.604
- CACUUAA — lower, -0.85
- GGGAGCU — higher, 1.92
- GCGGGUA — higher, 2.88
- GCCUUAG — higher, -0.483
- UACCAUC — higher, -0.756
- AAUCUCU — lower, -0.932
- AUGCUAG — higher, -0.207
- AGAUCUG — higher, -0.483
- AAUGUGC — higher, -0.0155
- GCCGCGG — higher, 0.241
- UAUUGCG — higher, -0.376
- CGCGUGG — higher, 1.63
- ACUCGCG — higher, -0.503
- GACUACA — higher, -0.532
- CGUUCCG — higher, -0.62
- CAGAACA — higher, -0.337
- UCCGGCG — higher, -0.275
- CGGUAGC — higher, 0.176
- UAGUCAU — higher, -0.444
- UUGUAAA — higher, -0.431
- GCGCGGA — higher, 1.08
- UCUUCCA — higher, -0.704
- CUAGCCA — higher, -0.727
- UAAGAGU — higher, 0.374
- ACCGCUC — higher, -0.75
- GAUUGCC — higher, -0.633
- GUUUGUG — higher, 0.865
- UGCUCAG — higher, -0.308
- CGACUAG — higher, -0.0609
- AUAGCCA — higher, -0.431
- GGGGCUU — higher, 1.38
- GGUAGUG — higher, 2.47
- GUAGGCA — higher, 1.31
- CGAUUGC — lower, -0.785
- AGACACA — higher, -0.506
- ACCGAUA — higher, -0.607
- GAACCGG — higher, 0.391
- ACAGACU — higher, -0.386
- CAAGCCG — higher, -0.629
- AUGGCGC — higher, 0.287
- CACUAAC — higher, -0.675
- CCCCGGU — higher, -0.0544
- CUAUUUG — higher, -0.691
- CGCUCCU — higher, -0.587
- GAGGCGC — higher, 0.761
- ACAUGGG — higher, 2.66
- AUGCAAG — higher, 0.472
- CAUAUGU — higher, -0.428
- ACGCACU — higher, -0.694
- UUGAUAG — higher, 0.209
- UGCUCAC — higher, -0.61
- CACGCAU — higher, -0.639
- ACGGUUC — higher, -0.0772
- CCUUACA — lower, -0.928
- ACAACCG — higher, -0.474
- GUAGAGA — higher, 1.43
- CAGUUAG — higher, -0.171
- CGGCGGA — higher, 0.862
- UACCCCA — higher, -0.493
- CCAAACU — higher, -0.672
- CCUUUAA — lower, -0.899
- CCUACUG — higher, -0.759
- GGCUCUA — higher, -0.36
- UAUGGCU — higher, -0.149
- AACCUGG — higher, -0.256
- UAUGUGU — higher, 0.124
- UCCCGGU — higher, -0.0772
- CAAGGAG — higher, 2.17
- UGGCAUC — higher, -0.171
- GCCAAGC — higher, -0.539
- ACAGCUU — lower, -0.896
- AGUAUUG — higher, -0.168
- UAUAAGU — higher, -0.158
- CUGCAGC — higher, -0.522
- UGCGUUU — higher, -0.249
- ACGGCGA — higher, 0.371
- GUAGACA — higher, 0.82
- CAAGAAG — higher, 0.111
- GUGCAGU — higher, 0.439
- CUUCCUA — lower, -0.844
- CAGUAGU — higher, -0.178
